From the supplement of paper PMC3334620
In all, about 33,000 sequences were measured (“E-score (-0.5 to 0.5)”: median about -0.035, highest 2% from about 0.35 on). The list shows a part of the results.

target: T1, Pdr3 (UniProt P33200); experiment: PBM E-score (8-mer binding enrichment) (E-score (-0.5 to 0.5)); higher = stronger / more preferred TF binding; most listed sequences are background and not binding sites; conditions: protein concentration: 200 nM; construct: GST-full length
T1 sequence: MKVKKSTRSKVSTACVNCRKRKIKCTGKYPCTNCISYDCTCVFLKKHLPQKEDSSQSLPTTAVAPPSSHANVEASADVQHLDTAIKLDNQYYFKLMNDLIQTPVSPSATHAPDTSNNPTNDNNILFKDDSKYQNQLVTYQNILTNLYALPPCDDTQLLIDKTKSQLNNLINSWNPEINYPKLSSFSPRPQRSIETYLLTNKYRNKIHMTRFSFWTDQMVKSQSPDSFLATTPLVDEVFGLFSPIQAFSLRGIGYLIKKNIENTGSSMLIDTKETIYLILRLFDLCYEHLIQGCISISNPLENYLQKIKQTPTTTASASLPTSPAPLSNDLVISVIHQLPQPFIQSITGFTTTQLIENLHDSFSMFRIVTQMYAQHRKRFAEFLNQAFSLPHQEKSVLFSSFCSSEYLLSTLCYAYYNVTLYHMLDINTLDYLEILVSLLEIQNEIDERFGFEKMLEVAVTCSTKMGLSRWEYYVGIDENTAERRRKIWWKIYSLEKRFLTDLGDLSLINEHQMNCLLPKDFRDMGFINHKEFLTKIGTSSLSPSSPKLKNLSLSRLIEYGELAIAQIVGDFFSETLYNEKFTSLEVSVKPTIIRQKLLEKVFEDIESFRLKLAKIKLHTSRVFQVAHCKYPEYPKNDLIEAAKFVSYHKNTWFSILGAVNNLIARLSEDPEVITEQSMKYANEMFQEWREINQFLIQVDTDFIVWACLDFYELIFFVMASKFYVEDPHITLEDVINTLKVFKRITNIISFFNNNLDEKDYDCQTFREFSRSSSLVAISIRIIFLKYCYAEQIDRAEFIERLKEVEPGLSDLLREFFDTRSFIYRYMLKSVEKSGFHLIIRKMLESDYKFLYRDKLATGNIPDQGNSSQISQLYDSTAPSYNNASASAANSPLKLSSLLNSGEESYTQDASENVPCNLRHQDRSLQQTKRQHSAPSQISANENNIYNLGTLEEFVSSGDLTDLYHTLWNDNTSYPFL
How it was run: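 Bound GST-tagged yeast transcription factors, applied at about 100-200 nM to double-stranded universal all-10-mer Agilent arrays, were detected with fluorescent anti-GST. Scans were normalised with masliner. A modified Wilcoxon-Mann-Whitney statistic, the E-score, was assigned to each ungapped eight-base word pooled with its reverse complement by the Universal PBM Analysis Suite.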

| Sequence | PBM E-score |
| --- | --- |
| TAGGCTCA | -0.324 |
| CAGCACCA | -0.146 |
| GGTCCGGA | 0.413 |
| CGATGTTC | 0.127 |
| CTATACAA | -0.178 |
| TAATAATA | -0.113 |
| GCGGCGCA | 0.0927 |
| ATTGGTGC | 0.159 |
| GAACAAGA | 0.117 |
| AGGGTGTG | -0.0975 |
| GAGTCGGC | 0.123 |
| CGTCAGAA | -0.204 |
| CTCTTTCA | -0.137 |
| ACCTTCGT | 0.00021 |
| AGTGGCGC | 0.153 |
| GCGTACCA | -0.206 |
| GGCAGACC | -0.264 |
| ACGTTAGT | -0.166 |
| CCCCTTCA | -0.209 |
| TCAGCACA | -0.0715 |
| ACGGATGA | 0.267 |
| ATCCAGAT | -0.0128 |
| GTTCGGAA | 0.431 |
| GGCTAGGA | -0.301 |
| AAATGCTT | -0.177 |

| Sequence | PBM E-score |
| --- | --- |
| AATCCGCC | 0.17 |
| CCGATCGG | 0.333 |
| CTCCATGC | -0.0192 |
| ACCAACAG | -0.0458 |
| ACCCCGCC | 0.174 |
| CCCGCCCA | 0.231 |
| CAATCTGA | -0.115 |
| CAGCTCAC | -0.193 |
| CTTTGTCC | 0.152 |
| ACTAGCCT | -0.0641 |
| ACCAGGAA | 0.0196 |
| ACACCCCT | -0.154 |
| AACCTGGT | 0.16 |
| CTCCCCCA | -0.212 |
| CCAGGGGC | -0.195 |
| CTCACCTC | -0.0849 |
| GATGACAA | 0.117 |
| AGGCGCTC | -0.0678 |
| GGCCTCAC | 0.0182 |
| AAACTGTG | -0.024 |
| ATCTGCTG | -0.174 |
| ATATGCGA | -0.0657 |
| GCGAACAC | 0.011 |
| CCTTGCAG | -0.00654 |
| TAACTCAA | -0.0897 |

| Sequence | PBM E-score |
| --- | --- |
| CCACATTA | -0.0674 |
| ACGGAGGA | 0.198 |
| CGCGAGTA | 0.103 |
| AACGACGG | 0.211 |
| CCTCGGGC | 0.134 |
| CATTGTGA | 0.0281 |
| ACCCGGTA | 0.215 |
| TGCTTGAA | -0.0679 |
| GAACGCCA | 0.116 |
| GAGGTTCC | 0.262 |
| CCTCTTGC | -0.147 |
| CTGAGGTC | -0.219 |
| CAAGTGAC | -0.195 |
| CTGGGTTA | -0.139 |
| ACTGACTC | -0.237 |
| GATCCATA | 0.11 |
| ATAAGAAT | 0.12 |
| ATACGACA | -0.189 |
| ACATTACA | -0.16 |
| ACCAGTAA | -0.0141 |
| AAAGGCCA | -0.0757 |
| AGCAACGC | -0.00843 |
| CATAGAGC | -0.173 |
| AATGCACC | 0.196 |
| CTGGAAGC | -0.322 |

| Sequence | PBM E-score |
| --- | --- |
| AAAGCTAT | 0.0477 |
| AATTAACC | 0.273 |
| GAAGTAAA | 0.127 |
| CTAGGCGC | -0.0403 |
| AGTGAGAC | -0.148 |
| TCATGGGA | -0.117 |
| ACTTACCT | -0.176 |
| CGCCAATA | 0.0969 |
| CGACGGCG | 0.176 |
| AATGCCTA | 0.121 |
| CACTCCAG | 0.0257 |
| ACAGCAGC | -0.0541 |
| CAGCTGAG | -0.082 |
| CTATACCA | -0.246 |
| CGAGTCAG | -0.112 |
| GGACGTAC | -0.145 |
| AGTAGTAT | -0.00713 |
| AACTTGAT | 0.00755 |
| GACCATGA | 0.0513 |
| CTAGTCGA | -0.179 |
| ACCAGACA | -0.161 |
| AAAAAGTC | 0.0911 |
| AACGACAT | -0.00323 |
| CAACGAGC | -0.165 |
| AATCGTGC | 0.28 |

| Sequence | PBM E-score |
| --- | --- |
| GTCCAAAA | 0.166 |
| AAGGCTGC | -0.15 |
| CTTTCAGA | -0.0908 |
| TGCAGACA | -0.0945 |
| TGAATCCA | -0.11 |
| CTGAACCA | -0.0752 |
| CATTGCAG | -0.142 |
| CGACGGTA | 0.149 |
| AGTTGACC | 0.195 |
| CCAGAGAC | -0.151 |
| GATTTCTA | 0.176 |
| GCTAACCC | -0.0511 |
| CCCAGCAA | 0.0104 |
| CGAGAGGA | -0.0206 |
| ATAGCTAG | -0.171 |
| GTCAAGGA | -0.0724 |
| CAACGCTA | -0.113 |
| CTTTGGGC | 0.126 |
| CGCAACCA | 0.169 |
| ACGAATGG | 0.128 |
| AATGCGCT | -0.0583 |
| GTCGATAA | -0.0109 |
| AGATGGAC | 0.0691 |
| AAAGAAGT | -0.0364 |
| ACTGAGCA | -0.0639 |

| Sequence | PBM E-score |
| --- | --- |
| CAACTTGA | 0.0601 |
| ATGGGGGA | -0.172 |
| GACTCATC | -0.241 |
| CAGGTGCC | -0.0993 |
| ACGCACGG | 0.271 |
| ATTCGGTA | 0.0682 |
| AAACCTAA | -0.0251 |
| GAAGAACA | 0.194 |
| ACAGGAAG | 0.0468 |
| AACGAATT | -0.00992 |
| GAAGATTA | 0.03 |
| TCATCACA | -0.206 |
| ACACAGCT | -0.195 |
| TAGGTGCA | -0.151 |
| CCAACAAA | -0.0869 |
| AAATGTGC | 0.202 |
| TGCGACCA | 0.174 |
| GGCTCCGA | 0.227 |
| CAGGGAAC | -0.133 |
| AAGAACCA | -0.0468 |
| AATACGCT | -0.082 |
| AATTCAGT | -0.113 |
| AGCCAAAG | -0.254 |
| CGTGCAGA | -0.148 |
| CCGTGTGA | 0.137 |

| Sequence | PBM E-score |
| --- | --- |
| TCTCGGAA | 0.444 |
| AATTAAGG | -0.221 |
| CATTCGAG | -0.0138 |
| ACTAATAT | 0.038 |
| AACGCAAC | 0.167 |
| ATCGGTCG | 0.139 |
| GGTCTACA | -0.0795 |
| AAAGCTCG | 0.0308 |
| GTAAATGA | 0.0457 |
| ATTCGGAC | 0.275 |
| GGCACCAA | 0.172 |
| GATGTAGA | -0.0944 |
| CATATGGC | -0.0414 |
| ACATGAAA | -0.147 |
| CAGATGGC | -0.0668 |
| GGTCACTA | -0.00881 |
| GTTGGTGA | 0.0595 |
| ATTTGAGG | -0.0861 |
| AATTACAT | 0.089 |
| CGGGACAA | 0.213 |
| TAATGATA | 0.132 |
| GGTGCCAC | -0.0915 |
